Measurements published in PubChem BioAssay AID624417 (National Center for Advancing Translational Sciences (NCATS), 2012).
Among all 410,000 compounds or so, about 6,400 (1.6%) were called active. This list was built around the results that the source calls inconclusive (neither active nor inactive); the mix of calls is not that of the screen. Calls come from the whole dose curve; as a rule, active = well fitted inhibition curve with a large enough effect; inconclusive = small, poorly fitted or top-dose-only effect; inactive = no such curve, though single readings can be large or run the other way. Potencies of inconclusive entries are doubtful fits and often do not repeat.

Molecular target: Glucagon-like peptide 1 receptor (Homo sapiens) (UniProt P43220)
UniProt P43220, sequence (P43220 whole entry, looked up): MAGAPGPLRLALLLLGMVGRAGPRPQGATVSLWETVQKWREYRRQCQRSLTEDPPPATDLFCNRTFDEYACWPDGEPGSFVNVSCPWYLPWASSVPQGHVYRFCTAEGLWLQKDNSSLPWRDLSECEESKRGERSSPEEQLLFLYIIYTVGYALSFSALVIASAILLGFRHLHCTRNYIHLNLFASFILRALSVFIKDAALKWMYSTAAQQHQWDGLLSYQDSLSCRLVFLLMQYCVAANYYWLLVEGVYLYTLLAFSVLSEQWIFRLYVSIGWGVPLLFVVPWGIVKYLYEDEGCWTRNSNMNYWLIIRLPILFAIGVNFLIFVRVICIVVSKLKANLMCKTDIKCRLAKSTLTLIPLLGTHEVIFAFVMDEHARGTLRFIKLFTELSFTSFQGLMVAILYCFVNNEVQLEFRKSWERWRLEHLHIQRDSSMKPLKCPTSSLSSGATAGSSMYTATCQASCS
Test: qHTS of GLP-1 Receptor Inverse Agonists (Inhibition Mode); note: nearly all actives have a fitted effect of over 55% in size
Conditions: HEK293 GLP-1R CRE-luciferase, luminescence, 24 h, GLP-1R form is constitutively active; series mostly up to 38.3 µM
Summary of the method: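 Readout was luciferase luminescence, measured 12 min after detection reagent at room temperature. Beforehand, GLP-1R reporter HEK293 cells had sat 12 h, then received compounds for 24 hr at 37 deg C.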
Potency is the fitted concentration of half-maximal effect; tags give direction and shape of the fitted curve.

Potency, inactive:
CCOC(=O)c1c(S(=O)(=O)N2CCC(C(=O)Nc3ccc(F)cc3F)CC2)c(C)n(C)c1C

Potency, inconclusive:
COc1cccc(NC(=O)Cn2cc(C(=O)c3ccco3)c3ccccc32)c1 11.2 µM [inhibitor, partial curve, poor fit], O=C(Nc1ccccc1)NC1(C(=O)NCc2ccco2)CCCCC1 10 µM [inhibitor, partial curve, poor fit], COc1ccc(/C=N/NS(=O)(=O)c2ccc(C)cc2)cc1OC(=O)c1ccc(C)cc1 31.6 µM [inhibitor, single point], O=C(O)COc1ccccc1/C=C1\SC(=Nc2ccc(F)cc2)N(c2ccc(F)cc2)C1=O 28.2 µM [inhibitor, single point], COc1ccccc1OCCNC(=O)CN(c1cccc(C)c1)S(=O)(=O)c1ccccc1 28.2 µM [inhibitor, single point], CCN1/C(=C/C=C/c2oc3ccc4ccccc4c3[n+]2CC)Oc2ccc3ccccc3c21 1 µM [inhibitor, full curve, poor fit], Nc1ccc(C23CC4CC(CC(CO)(C4)C2)C3)cc1 12.6 µM [inhibitor, single point], Cc1nc(N)sc1C(=O)N/N=C/c1c[nH]c2ccccc12 5.62 µM [inhibitor, partial curve, poor fit], O=C(CCCc1c[nH]c2ccccc12)Nc1ccc2ccccc2c1 10 µM [inhibitor, single point], COc1ccccc1N1CCN(C(=O)c2cc(=O)c3cc(C)ccc3o2)CC1 11.2 µM [inhibitor, single point], COCCN(Cc1ccccc1)C(=S)Nc1ccc(Cl)cc1 10 µM [inhibitor, partial curve, poor fit], CCc1sc(C(=O)NCc2ccco2)cc1C 2.82 µM [inhibitor, partial curve, poor fit], Cc1ccc(C)c(OCc2nc3ccccc3[nH]2)c1 8.91 µM [inhibitor, partial curve, poor fit], O=C(c1ccc2ncsc2c1)N1CCN(c2cccc(C(F)(F)F)c2)CC1 3.55 µM [inhibitor, partial curve, poor fit], CN(C)c1ccc(-c2ccnc3c2CC(C)(C(=O)NCCc2ccccc2)O3)cc1 (stereo unspecified) 10 µM [inhibitor, partial curve, poor fit]
